PubChem BioAssay AID720542 (National Center for Advancing Translational Sciences (NCATS), 2013)
Hit rate of the full screen: of about 360,000 compounds, about 740 (0.21%) were called active. The shares of active, inactive and inconclusive entries below differ from those in the screen. Calls come from the whole dose curve; as a rule, active = well fitted inhibition curve with a large enough effect; inconclusive = small, poorly fitted or top-dose-only effect; inactive = no such curve, though single readings can be large or run the other way. No potency is given beside an inconclusive call; the fits are too rough.
Note: nearly all actives have a fitted effect of over 45% in size.
Potency is the fitted concentration of half-maximal effect; tags give direction and shape of the fitted curve.
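Throughout, for activity change, negative = inhibition: 0% = vehicle wells and -100% = peptide control.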

What follows are compounds tested on Plasmodium falciparum AMA1 (3D7) - RON2 peptide interaction (assay: qHTS for Inhibitors of AMA1-RON; Towards Development of Antimalarial Drug Lead: Primary Screen). Settings: AlphaScreen AMA1-biotinylated RON2 peptide binding; activity change, negative = inhibition: at 58.2 µM (top of the series) unless noted.
Source text: Plasmodium, the causative agent of malaria, is one of the world's deadliest parasitic diseases. Currently there is no vaccine available and there is widespread resistance to common anti-malarial drugs. This warrants novel, alternative approaches for developing improved therapy. During infection, one such essential interaction is between two parasite proteins, the apical membrane antigen1 (AMA1) that is translocated onto the merozoite surface and the rhoptry neck protein 2 (RON2), which is transferred to the red blood cells (RBC) membrane during invasion (Besteiro et.al., 2009). Recently, the Miller lab has shown that the interaction between AMA1 and RON2 is essential for junction formation of the parasite with the host cell (Srinivasan et.al., 2011). The binding of the RON2 peptide to the hydrophobic pocket in AMA triggers the formation of the moving junction which provides a firm anchor for the parasite to pull itself into the RBC using its actin-myosin motor; an irreversible step that commits the parasite for invasion. Only one AMA1 and RON2 genes exists in Plasmodium and there are no alternate pathways. Moreover, the region corresponding to RON2 peptide is conserved in all P. falciparum isolates for which sequences are available. The key residues in the AMA1 hydrophobic pocket that binds RON2 are also conserved and indicate a functional constraint governing this essential step in invasion since a short RON2 peptide (RON2L) corresponding to the binding region on AMA1 is sufficient to compete with the native RON2 protein and inhibits invasion (Tonkin et.al, 2011). Therefore, developing small molecule inhibitors of this interaction offers a promising target opening a new arena for anti-malarial therapeutics drug design.
In collaboration with the Miller lab, a quantitative High Throughput Screen using the AlphScreen technology was developed using a recombinant his-tagged AMA1 and a biotinylated RON2 peptide. This fluorescent screen was assayed against the NIH Molecular Libraries Small Molecule Repository (MLSMR). Inhibition of this protein-protein interaction is the desired outcome of this assay. However, due the limitations of this AlphaScreen assay, a large number of artifacts were observed. An AlphaScreen counterscreen was run to identify the true inhibitors, triage compound activity, and weed out false positives.
NIH Chemical Genomics Center [NCGC]
NIH Molecular Libraries Probe Centers Network [MLPCN]
Assay Submitter (PI): Louis Miller, National Institute of Allergy and Infectious Disease (NIAID)
Two microliters of his-tagged AMA1 3D7 allele protein (final concentration 25 nM) was dispensed into a 1,536-well assay plate. Small molecules and positive control peptides were pin-transferred (23 nL or 46 nL) via Kalypsys pin-tool equipped with a 1,536-pin array, resulting in final compound and peptide concentration ranges of 91.5 nM - 57.2 µM, and 15.6 nM - 2.00 µM, respectively. Unlabeled RON2 peptide or R1 peptide ([…]) that specifically binds the 3D7 AMA1 was used as a positive control that inhibited the binding of RON2L to AMA1. After 15 minutes incubation, 1 uL of biotinylated RON2 peptide (final concentration 25 nM) or buffer were dispensed and the assay plate was incubated for an additional 30 minutes at room temperature and protected from light. This was followed by an addition of 1 uL mixture of donor and acceptor beads (10 ug/mL final concentrations for each). The plates were incubated for 30 min at room temperature and read using the EnVision(R) plate reader (PerkinElmer). Maximum inhibition response was normalized to the positive control signal while no inhibition response was normalized to the DMSO treated wells.
For `CCN(c1ccccc1)S(=O)(=O)c1ccc(OC)c(NC(=O)C2=NN(c3ccccc3)C(=O)CC2)c1`, the Potency was “inactive”.
`O=c1cnn(Cc2c(Cl)cccc2Cl)c2ccccc12` was tested, and the Potency was “inactive”.
For `Cc1nc(-[n+]2nc(-c3ccncc3)nn2-c2ccccc2)sc1C`, the activity change, negative = inhibition was inconclusive: -31.6% [inhibitor].
In the case of `O=C(Nc1ccc(F)c(Cl)c1)c1ccc2sc([C@H]3C[C@H](O)[C@@H](CO)O3)nc2c1`, the Potency is reported as “inactive”.
For `COc1ccc(OC)c(NC(=O)C2(C)CCN2Cc2cccc(OC)c2F)c1` (stereo unspecified), the Potency was inconclusive [inhibitor, single point].
In the case of `CCOc1ccc(-c2cnc(NCc3cccc4ccccc34)n2CCOC)cc1`, the Potency is reported as inconclusive [inhibitor, partial curve].
With `C/C(=N\NC(=O)Cc1c[nH]c2ccccc12)c1ccc2ccccc2c1` the Potency was inconclusive [inhibitor, partial curve].
For `Cc1cccc(C)c1NC(=O)CSc1nnc(-c2ccncc2)n1Cc1ccco1`, the Potency was “inactive”.
In the case of `CC(C)Cn1c(-c2nn(C)cc2Cl)n[nH]c1=S`, the Potency is reported as “inactive”.
In the case of `CCOC(=O)C1CCC(CN(Cc2ccccc2)S(=O)(=O)c2ccc([N+](=O)[O-])cc2)CC1` (stereo unspecified), the Potency is reported as inconclusive [inhibitor, partial curve].
With `Cc1cccc(C(=O)Oc2ccc(/C=N/NC(=O)c3cc(O)cc(O)c3)cc2)c1` the Potency was inconclusive [inhibitor, full curve, poor fit].
With `Cc1ccc([N+](=O)[O-])cc1S(=O)(=O)N(C(=O)c1ccncc1)c1ccc2oc3c(c2c1)CCCC3` the Potency was inconclusive [inhibitor, partial curve].
`O=C(CCn1c(=O)oc2ccccc21)N1CCc2ccccc21` was tested, and the Potency was “inactive”.
With `COc1cccc(C2c3[nH]c4ccccc4c3CCN2CCCn2cccn2)c1` (stereo unspecified) the Potency was inconclusive [inhibitor, partial curve].
With `Cc1ccc(CN2CCN(/N=C/c3cc([N+](=O)[O-])ccc3Cl)CC2)cc1` the Potency was inconclusive [inhibitor, partial curve].
With `CCOC(=O)C1=C(C)OC(N)=C(C#N)C1c1cc2c(cc1Br)OCO2` (stereo unspecified) the Potency was inconclusive [inhibitor, single point].
In the case of `O=C(COC(=O)c1ccc2c(c1)C(=O)N(Cc1ccco1)C2=O)NCC(F)(F)F`, the Potency is reported as inconclusive [inhibitor, full curve, poor fit].
For `Nc1nc(-c2ccc([N+](=O)[O-])cc2)cs1`, the Potency was “inactive”.
`COc1ccc(NC(=O)c2ccc3c(=O)n4c(nc3c2)CCCCC4)cc1` was tested, and the Potency was “inactive”.
For `CCOc1cc2c(cc1OCC)-n1cccc1C(c1cccc(OCC)c1O)NC2` (stereo unspecified), the Potency was “inactive”.
`CN(Cc1cn(C)nc1-c1ccccc1F)C1CCOC1` (stereo unspecified) was tested, and the Potency was “inactive”.
`O=C(NCC1CCCO1)C(c1cccs1)N(Cc1ccccc1)C(=O)c1ccc(-c2ccccc2)[nH]1` (stereo unspecified) was tested, and the Potency was inconclusive [inhibitor, full curve].
`O=C(COc1ccc(Br)cc1Br)NC(=S)Nc1cccc(CO)c1` was tested, and the Potency was “inactive”.
In the case of `C=CCN1c2ccccc2[C@]23C[C@@H](C(=O)OC)N(C(=O)CC(C)C)C2=NC(C(=O)OC)=C(C(=O)OC)[C@H]13`, the Potency is reported as inconclusive [inhibitor, single point].
For `CC(C)Cc1nnc(NC(=O)CSc2ncn[nH]2)s1`, the Potency was “inactive”.
`CCOC(=O)C1CCN(S(=O)(=O)c2cn(C)c(C)n2)CC1` was tested, and the Potency was “inactive”.
In the case of `O=C(CSc1ccc(Cl)cc1)N1CCN(c2ccc(Cl)cc2[N+](=O)[O-])CC1`, the Potency is reported as inconclusive [inhibitor, partial curve].
With `O=C(Nc1ccccc1N1CCN(c2ccccc2)CC1)c1cccc(F)c1` the Potency was inconclusive [inhibitor, single point].
With `O=C(Nc1ccc(N2CCCC2)c(Cl)c1)c1ccc2c(c1)OCCO2` the Potency was inconclusive [inhibitor, partial curve].
`COc1cccc(-c2cnc(C(O)c3ccc(Cl)c(F)c3)[nH]2)c1` (stereo unspecified) was tested, and the Potency was “inactive”.
With `COc1ccc(Nc2nc3ccc(OC)cc3s2)cc1` the Potency was inconclusive [inhibitor, single point].
With `COc1ccccc1NC(=O)CCCc1c[nH]c2ccccc12` the Potency was inconclusive [inhibitor, single point].
In the case of `COC(=O)c1cc(C(=O)c2c(C)cc3ccccn23)cc([N+](=O)[O-])c1`, the Potency is reported as inconclusive [inhibitor, partial curve].
In the case of `COc1ccc(C)cc1NC(C)C(=O)NC(=O)NC1CCCCC1` (stereo unspecified), the Potency is reported as inconclusive [inhibitor, single point].
`O=C(NC(=S)N(Cc1ccccc1)c1ccccn1)C1CCCCC1` was tested, and the Potency was inconclusive [inhibitor, partial curve].
In the case of `Clc1ccc(-c2nn3c(C4COc5ccccc5O4)nnc3s2)cc1` (stereo unspecified), the Potency is reported as “inactive”.
`COc1ccc2oc(C(=O)N3CCN(C(c4ccccc4)c4ccccc4)CC3)c(C)c2c1` was tested, and the Potency was inconclusive [inhibitor, partial curve, poor fit].
In the case of `Cc1cccc(N2CCN(CCCNC(=O)c3ccc(NC(=O)C4=CSCCO4)cc3)CC2C)c1` (stereo unspecified), the Potency is reported as inconclusive [inhibitor, partial curve].
`COc1ccc([N+](=O)[O-])cc1NC(=O)C(C)OC(=O)Cc1ccc(OC)c(OC)c1` (stereo unspecified) was tested, and the activity change, negative = inhibition was inactive: -6.9% [at 11.6 µM].
In the case of `C#CCOCCOCCOCCNc1nc(N2CCN(C(=O)[C@H](CCCCN)n3cc(CN)nn3)CC2)nc(N2CCN(C(=O)[C@H](CCCN=C(N)N)n3cc(C(N)[C@H](C)CC)nn3)CC2)n1` (stereo partly specified), the Potency is reported as “inactive”.
For `O=[N+]([O-])c1ccccc1NC1CCN(Cc2ccccc2)CC1`, the Potency was inconclusive [inhibitor, partial curve].
In the case of `CCc1ccc(NCc2nc3ccccc3c(=O)[nH]2)cc1`, the Potency is reported as “inactive”.
In the case of `Clc1ccccc1CN1CCSCC1`, the Potency is reported as inconclusive [inhibitor, single point].
`Cc1cc(Cl)c2oc(C(=O)N3CCN(c4cccc(C)n4)CC3)c(C)c2c1` was tested, and the Potency was inconclusive [inhibitor, partial curve].
`CCOc1cc(N2CCOCC2)c(OCC)cc1NC(=O)COc1cccc(Cl)c1` was tested, and the Potency was inconclusive [inhibitor, partial curve].
For `O=C(COc1cccc(C(F)(F)F)c1)NCC(c1ccco1)N1CCCC1` (stereo unspecified), the Potency was “inactive”.
With `C=C(C)Cn1c(N2CCN(c3ccc(OC)cc3)CC2)nc2c1c(=O)n(C)c(=O)n2C` the Potency was “inactive”.
`CCOC(=O)c1cnc2ccc(OCC)cc2c1N1CCN(c2ccccc2)CC1` was tested, and the Potency was inconclusive [inhibitor, partial curve].
With `Cc1nc2sc(C(c3ccccc3)N3CCOCC3)c(O)n2n1` (stereo unspecified) the activity change, negative = inhibition was inconclusive: 12.3% [inhibitor].
`Cc1cccc(N2N=C(C(=O)O)CCC2=O)c1` was tested, and the Potency was “inactive”.
In the case of `Cc1ccc(N2C(=O)c3ccccc3C2C(=O)c2ccc(C)c(C)c2O)cc1` (stereo unspecified), the Potency is reported as inconclusive [inhibitor, full curve, poor fit].
With `CCOc1cc(CNc2ccc(N3CCOCC3)cc2)cc(Br)c1OCC` the Potency was active: 14.1 µM.
With `COc1ccc(OC)c(C(=O)c2ccc([N+](=O)[O-])cc2)c1` the Potency was inconclusive [inhibitor, single point].
In the case of `COc1ccc(N2CCN(c3ncccc3C#N)CC2)cc1`, the Potency is reported as inconclusive [inhibitor, partial curve].
For `Cc1ccc(Oc2ccc(N)cc2)cc1`, the Potency was inconclusive [inhibitor, single point].
`COc1ccc2c(c1)-c1c(sn(-c3ccccc3)c1=S)C(C)(C)N2` was tested, and the Potency was active: 12.6 µM.
In the case of `O=C1CCCC(O)=C1Sc1ccccc1C(=O)O`, the Potency is reported as “inactive”.
In the case of `COc1ccc(Nc2nc(NCc3cccs3)nc3ccsc23)cc1OC`, the Potency is reported as inconclusive [inhibitor, partial curve].
With `O=C(Cc1ccccc1)N1CCN(Cc2ccc(F)cc2)CC1` the Potency was inconclusive [inhibitor, single point].
For `Cc1cccc2nc(-c3ccco3)c(Nc3ccc4c(c3)OCCO4)n12`, the Potency was “inactive”.
In the case of `O=C(c1ccco1)N1CCN(c2c([N+](=O)[O-])nn(-c3ccc(Cl)cc3)[n+]2[O-])CC1`, the Potency is reported as inconclusive [inhibitor, single point].
`CCN(CC)c1ccc(NC(=S)NC(=O)c2cccs2)cc1` was tested, and the Potency was inconclusive [inhibitor, single point].
For `CCOC(=O)Cc1csc(Nc2ccc(Cl)cc2)n1`, the Potency was “inactive”.
For `COc1cc([C@@H]2[C@H]3CNCC=C3C(C#N)=C(N)C2(C#N)C#N)ccc1OC(C)C`, the Potency was “inactive”.
`O=C(NCCc1ccccc1)c1cccc(N2CCCC2=O)c1` was tested, and the Potency was inconclusive [inhibitor, single point].
For `CCOC(=O)C1=C(C)N=c2sc(=Cc3cc(Cl)c(OCC(=O)O)c(Cl)c3)c(=O)n2C1c1cccc(OC)c1` (stereo unspecified), the Potency was inconclusive [inhibitor, partial curve].
`Cc1ccc(S(=O)(=O)N2CCOCC2)cc1C(=O)Nc1ccc(N2CCCCCC2)cc1` was tested, and the Potency was inconclusive [inhibitor, partial curve].
With `O=C1C(Cc2cccc([N+](=O)[O-])c2)SC(=Nc2ccccc2)N1c1ccccc1` (stereo unspecified) the Potency was inconclusive [inhibitor, partial curve].
In the case of `COCCOc1cc(NCc2ccccc2)c2ncn(C(C)C)c2c1`, the Potency is reported as inconclusive [inhibitor, single point].
With `CCc1ccc2oc(C(=O)Nc3cccnc3)c(C)c2c1` the Potency was “inactive”.
For `Cc1cc(/C=C2/C(=O)N(C)C(=S)N2C)ccc1N1CCCC1`, the Potency was inconclusive [inhibitor, single point].
